Consider six molecules from patent US20100260668A1 (published 2010).

Usually Kd stands for the free concentration of one partner at which half of the binding sites on the other are occupied at equilibrium, for simple one-to-one binding. For orientation: koff means a measure of how fast the partners let go of each other. Low readings indicate a long-lived complex, high ones a short-lived complex. What is called kon is the rate constant with which the complex forms. A high value points to faster complex formation.

The chains are these.
T1: VEGF (UniProt P15692-4 27-191)
T1 construct: Bought reagent; also called vascular endothelial growth factor
T1 sequence (looked up): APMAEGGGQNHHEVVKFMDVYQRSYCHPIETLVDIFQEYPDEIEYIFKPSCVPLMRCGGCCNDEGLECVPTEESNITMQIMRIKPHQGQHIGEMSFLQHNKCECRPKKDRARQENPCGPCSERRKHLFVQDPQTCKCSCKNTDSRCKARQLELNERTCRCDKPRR

B1: DVD517 (bispecific antibody, human IgG1, kappa, lambda)
heavy: EVQLQQSGPELEKPGASVKISCKASGYSFTGYNMNWVKQSNGKSLEWIGNIDPYFGGTNYNQKFKGKATLTVDKSSSTAYMQLKSLTSEDSAVYYCARNYDYDGGCFDYWGQGTTLTVSSASTKGPSVFPLAPEVQLVESGGGLVQPGGSLRLSCAASGYTFTNYGMNWVRQAPGKGLEWVGWINTYTGEPTYAADFKRRFTFSLDTSKSTAYLQMNSLRAEDTAVYYCAKYPHYYGSSHWYFDVWGQGTLVTVSS[omitted - human IgG1 constant region]
light: QAVVTQESALTTSPGETVTLTCRSSTGAVTTSNYANWVQEKPDHLFTGLIGGTNNRAPGVPARFSGSLIGDKAALTITGAQTEDEAIYFCALWYSNHWVFGGGTKLTVLGQPKAAPSVTLFPPDIQMTQSPSSLSASVGDRVTITCSASQDISNYLNWYQQKPGKAPKVLIYFTSSLHSGVPSRFSGSGSGTDFTLTISSLQPEDFATYYCQQYSTVPWTFGQGTKVEIKRTVAAPSVFIFPPSDEQLKSGTASVVCLLNNFYPREAKVQWKVDNALQSGNSQESVTEQDSKDSTYSLSSTLTLSKADYEKHKVYACEVTHQGLSSPVTKSFNRGEC
notes: DVD-Ig; N-term; AB073 (DLL4), C-term; AB014 (VEGF); HC linker long, LC linker long; also called DVD517H; DVD517L
B2: DVD459 (bispecific antibody, human IgG1, kappa)
heavy: QVQLVQSGAEVKKPGASVKISCKASGYSFTAYYIHWVKQAPGQGLEWIGYISSYNGATNYNQKFKGRVTFTTDTSTSTAYMELRSLRSDDTAVYYCARDYDYDVGMDYWGQGTLVTVSSASTKGPEVQLVESGGGLVQPGGSLRLSCAASGYTFTNYGMNWVRQAPGKGLEWVGWINTYTGEPTYAADFKRRFTFSLDTSKSTAYLQMNSLRAEDTAVYYCAKYPHYYGSSHWYFDVWGQGTLVTVSS[omitted - human IgG1 constant region]
light: DIVMTQSPDSLAVSLGERATISCRASESVDNYGISFMKWFQQKPGQPPKLLIYAASNQGSGVPDRFSGSGSGTDFTLTISSLQAEDVAVYYCQQSKEVPWTFGGGTKVEIKRTVAAPSVFIFPPDIQMTQSPSSLSASVGDRVTITCSASQDISNYLNWYQQKPGKAPKVLIYFTSSLHSGVPSRFSGSGSGTDFTLTISSLQPEDFATYYCQQYSTVPWTFGQGTKVEIKRTVAAPSVFIFPPSDEQLKSGTASVVCLLNNFYPREAKVQWKVDNALQSGNSQESVTEQDSKDSTYSLSSTLTLSKADYEKHKVYACEVTHQGLSSPVTKSFNRGEC
notes: DVD-Ig; N-term; AB069 (DLL4), C-term; AB014 (VEGF); HC linker short, LC linker long; also called DVD459H; DVD459L
B3: DVD511 (bispecific antibody, human IgG1, kappa)
heavy: EVQLQQSGPELEKPGASVKISCKASGYSFTGYNMNWVKQSNGKSLEWIGNIDPYFGGTNYNQKFKGKATLTVDKSSSTAYMQLKSLTSEDSAVYYCARNYDYDGGCFDYWGQGTTLTVSSASTKGPEVQLVESGGGLVQPGGSLRLSCAASGYTFTNYGMNWVRQAPGKGLEWVGWINTYTGEPTYAADFKRRFTFSLDTSKSTAYLQMNSLRAEDTAVYYCAKYPHYYGSSHWYFDVWGQGTLVTVSS[omitted - human IgG1 constant region]
light: QAVVTQESALTTSPGETVTLTCRSSTGAVTTSNYANWVQEKPDHLFTGLIGGTNNRAPGVPARFSGSLIGDKAALTITGAQTEDEAIYFCALWYSNHWVFGGGTKLTVLGQPKAAPDIQMTQSPSSLSASVGDRVTITCSASQDISNYLNWYQQKPGKAPKVLIYFTSSLHSGVPSRFSGSGSGTDFTLTISSLQPEDFATYYCQQYSTVPWTFGQGTKVEIKRTVAAPSVFIFPPSDEQLKSGTASVVCLLNNFYPREAKVQWKVDNALQSGNSQESVTEQDSKDSTYSLSSTLTLSKADYEKHKVYACEVTHQGLSSPVTKSFNRGEC
notes: DVD-Ig; N-term; AB073 (DLL4), C-term; AB014 (VEGF); HC linker short, LC linker short; also called DVD511H; DVD511L
B4: DVD523 (bispecific antibody, human IgG1, kappa)
heavy: EVQLQQSGPELEKPGASVKISCKASGYSFTGYNMNWVKQSNGKSLEWIGNIDPYFGGTNYNQKFKGKATLTVDKSSSTAYMQLKSLTSEDSAVYYCARNYDYDGGCFDYWGQGTTLTVSSASTKGPSVFPLAPEVQLVESGGGLVQPGGSLRLSCAASGYTFTNYGMNWVRQAPGKGLEWVGWINTYTGEPTYAADFKRRFTFSLDTSKSTAYLQMNSLRAEDTAVYYCAKYPHYYGSSHWYFDVWGQGTLVTVSS[omitted - human IgG1 constant region]
light: QAVVTQESALTTSPGETVTLTCRSSTGAVTTSNYANWVQEKPDHLFTGLIGGTNNRAPGVPARFSGSLIGDKAALTITGAQTEDEAIYFCALWYSNHWVFGGGTKLTVLGQPKAAPDIQMTQSPSSLSASVGDRVTITCSASQDISNYLNWYQQKPGKAPKVLIYFTSSLHSGVPSRFSGSGSGTDFTLTISSLQPEDFATYYCQQYSTVPWTFGQGTKVEIKRTVAAPSVFIFPPSDEQLKSGTASVVCLLNNFYPREAKVQWKVDNALQSGNSQESVTEQDSKDSTYSLSSTLTLSKADYEKHKVYACEVTHQGLSSPVTKSFNRGEC
notes: DVD-Ig; N-term; AB073 (DLL4), C-term; AB014 (VEGF); HC linker long, LC linker short; also called DVD523H; DVD523L
B5: DVD529 (bispecific antibody, human IgG1, kappa, lambda)
heavy: EVQLQQSGPELEKPGASVKISCKASGYSFTGYNMNWVKQSNGKSLEWIGNIDPYFGGTNYNQKFKGKATLTVDKSSSTAYMQLKSLTSEDSAVYYCARNYDYDGGCFDYWGQGTTLTVSSASTKGPEVQLVESGGGLVQPGGSLRLSCAASGYTFTNYGMNWVRQAPGKGLEWVGWINTYTGEPTYAADFKRRFTFSLDTSKSTAYLQMNSLRAEDTAVYYCAKYPHYYGSSHWYFDVWGQGTLVTVSS[omitted - human IgG1 constant region]
light: QAVVTQESALTTSPGETVTLTCRSSTGAVTTSNYANWVQEKPDHLFTGLIGGTNNRAPGVPARFSGSLIGDKAALTITGAQTEDEAIYFCALWYSNHWVFGGGTKLTVLGQPKAAPSVTLFPPDIQMTQSPSSLSASVGDRVTITCSASQDISNYLNWYQQKPGKAPKVLIYFTSSLHSGVPSRFSGSGSGTDFTLTISSLQPEDFATYYCQQYSTVPWTFGQGTKVEIKRTVAAPSVFIFPPSDEQLKSGTASVVCLLNNFYPREAKVQWKVDNALQSGNSQESVTEQDSKDSTYSLSSTLTLSKADYEKHKVYACEVTHQGLSSPVTKSFNRGEC
notes: DVD-Ig; N-term; AB073 (DLL4), C-term; AB014 (VEGF); HC linker short, LC linker long; also called DVD529H; DVD529L
B6: DVD453 (bispecific antibody, human IgG1, kappa)
heavy: QVQLVQSGAEVKKPGASVKISCKASGYSFTAYYIHWVKQAPGQGLEWIGYISSYNGATNYNQKFKGRVTFTTDTSTSTAYMELRSLRSDDTAVYYCARDYDYDVGMDYWGQGTLVTVSSASTKGPSVFPLAPEVQLVESGGGLVQPGGSLRLSCAASGYTFTNYGMNWVRQAPGKGLEWVGWINTYTGEPTYAADFKRRFTFSLDTSKSTAYLQMNSLRAEDTAVYYCAKYPHYYGSSHWYFDVWGQGTLVTVSS[omitted - human IgG1 constant region]
light: DIVMTQSPDSLAVSLGERATISCRASESVDNYGISFMKWFQQKPGQPPKLLIYAASNQGSGVPDRFSGSGSGTDFTLTISSLQAEDVAVYYCQQSKEVPWTFGGGTKVEIKRTVAAPDIQMTQSPSSLSASVGDRVTITCSASQDISNYLNWYQQKPGKAPKVLIYFTSSLHSGVPSRFSGSGSGTDFTLTISSLQPEDFATYYCQQYSTVPWTFGQGTKVEIKRTVAAPSVFIFPPSDEQLKSGTASVVCLLNNFYPREAKVQWKVDNALQSGNSQESVTEQDSKDSTYSLSSTLTLSKADYEKHKVYACEVTHQGLSSPVTKSFNRGEC
notes: DVD-Ig; N-term; AB069 (DLL4), C-term; AB014 (VEGF); HC linker long, LC linker short; also called DVD453H; DVD453L

In the assay the target is T1, VEGF. Nature of the assay: BIACORE SPR.
B1: the Kd worked out at 0.569 nM, the koff worked out at 0.000303 s⁻¹ and the association rate constant (kon) worked out at 533000 M⁻¹ s⁻¹.
For B2, in that order: 0.00157 nM, 5.66e-07 s⁻¹ and 360000 M⁻¹ s⁻¹.
The matching figures for B3: 1.01 nM, 0.00037 s⁻¹ and 366000 M⁻¹ s⁻¹.
For B4, in that order: 0.305 nM, 0.000175 s⁻¹ and 573000 M⁻¹ s⁻¹.
B5 had a Kd of 0.332 nM, a koff of 0.000186 s⁻¹ and a kon of 561000 M⁻¹ s⁻¹.
The matching figures for B6: 0.00166 nM, 2.62e-07 s⁻¹ and 158000 M⁻¹ s⁻¹.
